The structures appear in SMILES notation. About 220 (0.56%) of roughly 39,000 compounds showed activity. This is one part of the list.

Among the data in the supplement of paper PMC9446081 are relative growth values, retold here.
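Further: static incubation at 37 °C against the wild-type strain, values averaged over two biological replicates.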

The assay has as its system Escherichia coli K-12 BW25113. Briefly: relative growth (OD600 normalised to plate interquartile mean) (fraction); higher = less growth inhibition, active = 0.2 or less. The note with it: 50 µM; LB; incubation time: overnight (16-24 h).
`C[C@H]1CN([C@@H](C)CO)S(=O)(=O)c2ccc(-c3cncnc3)cc2O[C@H]1CN(C)C(=O)c1ccc2c(c1)OCO2`: the relative growth is inactive: 1.04. With `COc1ccc(NC(=O)Nc2ccc3c(c2)C(=O)N([C@@H](C)CO)C[C@@H](C)[C@@H](CN(C)Cc2ccc(C(=O)Nc4ccccc4N)cc2)O3)cc1`, the relative growth is inactive: 1. Take `CCOC(=O)N(C)C[C@H]1OCc2cn(nn2)CCCC(=O)N([C@H](C)CO)C[C@H]1C`: the relative growth is inactive: 0.998.

Regarding `Cc1ccc(S(=O)(=O)Nc2ccc3c(c2)C(=O)N([C@H](C)CO)C[C@H](C)[C@H](CN(C)CC2CCCCC2)OCCCC[C@@H](C)O3)cc1`, the relative growth was inactive: 1.01. Consider `Oc1ccc2ccccc2c1` [beta-NAPHTHOL], for which the relative growth is inactive: 0.764. Take `CC(C)NC(=O)Nc1ccc2c(c1)CC(=O)N([C@H](C)CO)C[C@H](C)[C@@H](CN(C)Cc1ccc(C(=O)O)cc1)O2`: the relative growth is inactive: 0.995. On to `C[C@@H]1CN([C@H](C)CO)C(=O)c2cc(-c3ccc(C(=O)N(C)C)cc3)cnc2O[C@H]1CN(C)C(=O)c1cccnc1`, for which the relative growth is inactive: 0.968. Regarding `C[C@H](CO)N1C[C@H](C)[C@@H](CN(C)S(=O)(=O)c2cn(C)cn2)Oc2ccc(NC(=O)CCCCCC(=O)Nc3ccccc3N)cc2C1=O`, the relative growth was inactive: 0.997.

Turning to `CC(C)NC(=O)Nc1ccc2c(c1)C(=O)N([C@H](C)CO)C[C@@H](C)[C@@H](CN(C)Cc1ccccc1)OCCCC[C@H](C)O2`, the relative growth is inactive: 1. On to `Nc1ccon1`, for which the relative growth is inactive: 0.994.

Regarding `CCc1nc2ccc(C(=O)N3CCN(C(=O)c4ccco4)CC3)cn2c1N(C=O)Cc1ccc(OC)cc1`, the relative growth was inactive: 0.971. With `COc1ccc(S(=O)(=O)Nc2ccc3c(c2)CC(=O)N([C@@H](C)CO)C[C@H](C)[C@H](CN(C)Cc2ccc(C(=O)O)cc2)O3)cc1`, the relative growth is inactive: 1.

Take `C[C@@H]1CCCCO[C@H](CN(C)Cc2ccc(C(F)(F)F)cc2)[C@H](C)CN([C@H](C)CO)C(=O)c2cc(NC(=O)CCCN(C)C)ccc2O1`: the relative growth is inactive: 0.981. The result for `CN1C(=O)c2cc(NC(=O)c3cccs3)ccc2OC[C@@H]2O[C@H](CC(=O)NCCN3CCCCC3)CC[C@H]21` reads inactive: 1.02; that for `C[C@H]1CN([C@@H](C)CO)S(=O)(=O)c2ccc(-c3cccc(C(=O)N(C)C)c3)cc2O[C@@H]1CN(C)C(=O)Cc1ccccn1`, inactive: 1.01; that for `C[C@H](CO)N1C[C@H](C)[C@H](CN(C)C(=O)Nc2ccc3c(c2)OCO3)Oc2ccc(NS(=O)(=O)c3cn(C)cn3)cc2CC1=O`, inactive: 0.977. Consider `CCNC(=O)C[C@H]1CC[C@@H]2[C@H](COC[C@H](O)CN2C(=O)Nc2c(C)noc2C)O1`, for which the relative growth is inactive: 0.84. In the case of `Cc1noc(C)c1S(=O)(=O)Nc1ccc2c(c1)C(=O)N([C@H](C)CO)C[C@@H](C)[C@@H](CN(C)CC1CCCCC1)OCCCC[C@@H](C)O2`, the relative growth was inactive: 1.01. `C[C@@H]1CN([C@H](C)CO)C(=O)c2cc(C#Cc3ccc(F)cc3)cnc2O[C@@H]1CN(C)Cc1ccccn1`: the relative growth is inactive: 0.999. The result for `C[C@@H]1CCCCO[C@@H](CN(C)C(=O)c2ccccc2)[C@@H](C)CN([C@@H](C)CO)C(=O)c2cc(NS(=O)(=O)c3ccc(Cl)cc3)ccc2O1` reads inactive: 1; that for `C[C@@H](NCCC(c1ccccc1)c1ccccc1)c1ccccc1`, inactive: 0.976; that for `COc1ccc(CN(C)C[C@H]2OCCCC[C@@H](C)Oc3ccc(NC(=O)c4ccncc4)cc3C(=O)N([C@@H](C)CO)C[C@@H]2C)cc1`, inactive: 0.976.

For the compound `C[C@@H]1CCCCO[C@@H](CN(C)CC2CC2)[C@@H](C)CN([C@H](C)CO)C(=O)c2cc(NS(=O)(=O)c3cn(C)cn3)ccc2O1`, the relative growth is inactive: 0.975. The result for `COc1ccc([C@H]([C@@H](O)Cc2ccccc2)N(CC#C[C@@H](O[Si](c2ccccc2)(c2ccccc2)C(C)(C)C)c2ccccc2)[C@@H](Cc2ccccc2)C(OC)OC)cc1` reads inactive: 1.06; that for `CCOC(=O)/C(C)=N\O`, inactive: 0.975. Consider `COCC#Cc1ccc2c(c1)O[C@@H](CN(C)S(C)(=O)=O)[C@@H](C)CN([C@@H](C)CO)S2(=O)=O`, for which the relative growth is inactive: 1.03. With `C[C@H](CO)N1C[C@H](C)[C@@H](CN(C)Cc2ccc(C(F)(F)F)cc2)Oc2c(NC(=O)Nc3ccc(C(F)(F)F)cc3)cccc2C1=O` the figure was inactive: 0.928. The result for `C[C@H](CO)N1C[C@H](C)[C@H](CN(C)S(C)(=O)=O)OCCCC[C@H](C)Oc2ccc(NS(=O)(=O)c3cccs3)cc2C1=O` reads inactive: 1.01; that for `c1ccc(-c2[nH]nc3ccccc23)cc1`, inactive: 0.931. With `Cc1ccc(-c2cnc3c(c2)C(=O)N([C@H](C)CO)C[C@@H](C)[C@@H](CN(C)C(=O)Cc2cccnc2)O3)cc1` the figure was inactive: 0.994.

Regarding `CNC[C@@H]1Oc2ccc(NS(=O)(=O)c3cn(C)cn3)cc2CC(=O)N([C@H](C)CO)C[C@H]1C`, the relative growth was inactive: 0.975. Turning to `CNC(=O)C(=O)NC[C@H](c1ccc2c(c1)OCO2)N1CCOCC1`, the relative growth was inactive: 1.01. The result for `C[C@@H]1CCCCO[C@@H](CN(C)Cc2ccccc2)[C@H](C)CN([C@@H](C)CO)C(=O)c2cc(NC(=O)c3ccncc3)ccc2O1` reads inactive: 0.989; that for `C[C@@H]1CCCCO[C@@H](CN(C)C(=O)c2ccccc2)[C@H](C)CN([C@@H](C)CO)C(=O)c2cc(NC(=O)Nc3ccc(F)cc3)ccc2O1`, inactive: 0.994; that for `C/C=C/c1cccc(-c2nc(C(=O)NCc3ccc(OC)cc3)cc3c2[C@@H](CCO)N([S@@](=O)C(C)(C)C)C3)c1`, inactive: 1.04. For `COc1cccc(S(=O)(=O)N(C)C[C@@H]2Oc3cc(C#CCC(C)C)ccc3S(=O)(=O)N([C@H](C)CO)C[C@@H]2C)c1`, the relative growth is inactive: 1.01. With `COc1cccc(S(=O)(=O)Nc2ccc3c(c2)OC[C@H](C)N(C(=O)Cc2cccnc2)C[C@H](C)[C@H](OC)CN(C)C3=O)c1` the figure was inactive: 0.963.

Take `COc1ccc([Si](C)(C)[C@@H]2[C@@H](CCO)O[C@]3(C(=O)N(Cc4cccc(N5C(=O)c6cccc7cccc5c67)c4)c4ccccc43)[C@H]2C)cc1`: the relative growth was inactive: 0.908. In the case of `COc1ccc(NC(=O)Nc2cccc3c2O[C@@H](CN(C)Cc2ccc(Cl)c(Cl)c2)[C@@H](C)CN([C@@H](C)CO)C3=O)cc1`, the relative growth is inactive: 0.994. With `C[C@@H]1CN([C@@H](C)CO)C(=O)c2cc(NS(=O)(=O)c3ccc(F)cc3)ccc2O[C@@H](C)CCCCO[C@@H]1CN(C)CC1CCCCC1` the figure was inactive: 0.981. Regarding `CCO[C@H]1CN(CC)C[C@@H]1N`, the relative growth is inactive: 0.984.

On to `C[C@H](CO)N1C[C@H](C)[C@@H](CN(C)Cc2ccc(C(F)(F)F)cc2)OCc2ccccc2-c2c(n(C)c3ccccc23)C1=O`, for which the relative growth was inactive: 1.03.

With `C[C@H](CO)N1C[C@H](C)[C@@H](CN(C)C(=O)Nc2cccc3ccccc23)Oc2c(NS(=O)(=O)c3cccs3)cccc2C1=O`, the relative growth was inactive: 0.994. As for `C[C@H](CO)N1C[C@H](C)[C@H](CN(C)S(C)(=O)=O)Oc2cc(-c3ccc(F)cc3)ccc2S1(=O)=O`, the relative growth is inactive: 1.02. For the compound `O=C(C[C@H]1CC[C@@H]2[C@H](COC[C@H](O)CN2S(=O)(=O)c2ccccc2)O1)N[C@@H]1CCN(Cc2ccccc2)C1`, the relative growth is inactive: 0.991.

For `Cc1noc(C)c1NC(=O)Nc1ccc2c(c1)CC(=O)N([C@H](C)CO)C[C@H](C)[C@H](CN(C)Cc1ccc(-c3ccccc3)cc1)O2`, the relative growth was inactive: 1.02.

In the case of `C[C@@H]1CN([C@H](C)CO)C(=O)c2cc(NS(=O)(=O)c3cn(C)cn3)ccc2O[C@@H]1CN(C)CC1CC1`, the relative growth is inactive: 0.994.

Take `C[C@@H]1CN([C@@H](C)CO)C(=O)Cc2cc(NC(=O)c3ccncc3)ccc2O[C@H]1CN(C)Cc1ccc(Oc2ccccc2)cc1`: the relative growth was inactive: 0.994. Take `C[C@@H]1CCCCO[C@H](CN(C)C(=O)Cc2ccccc2)[C@H](C)CN([C@H](C)CO)C(=O)c2cc(NC(=O)CCC(F)(F)F)ccc2O1`: the relative growth was inactive: 0.986. For the compound `C[C@@H]1CN([C@H](C)CO)C(=O)c2cccc(NS(=O)(=O)c3ccc(Cl)cc3)c2O[C@@H]1CN(C)Cc1ccc(Cl)c(Cl)c1`, the relative growth is inactive: 1.02. The result for `CC(C)CC(N)=O` reads inactive: 1.08.

Turning to `C[C@@H]1CN([C@@H](C)CO)C(=O)Cc2cc(NC(=O)Cc3cn(C)c4ccccc34)ccc2O[C@H]1CN(C)C(=O)Nc1ccc(C(F)(F)F)cc1`, the relative growth is inactive: 0.965.

For the compound `COc1ccc(S(=O)(=O)N(C)C[C@H]2Oc3c(NS(C)(=O)=O)cccc3C(=O)N([C@@H](C)CO)C[C@@H]2C)cc1`, the relative growth is inactive: 0.991. `CC(C)NC(=O)N(C)C[C@@H]1OCCCC[C@H](C)Oc2ccc(NC(=O)Nc3cccc4ccccc34)cc2C(=O)N([C@H](C)CO)C[C@@H]1C`: the relative growth is inactive: 0.946. With `C[C@H]1CCCCO[C@@H](CN(C)C(=O)c2ccccc2)[C@@H](C)CN([C@@H](C)CO)C(=O)c2cc(NS(=O)(=O)c3ccccc3)ccc2O1` the figure was inactive: 1.01; with `COc1c2occc2cc2ccc(=O)oc12`, inactive: 0.905. In the case of `Cc1noc(C)c1NC(=O)Nc1ccc2c(c1)C(=O)N([C@@H](C)CO)C[C@H](C)[C@H](CN(C)Cc1ccc3c(c1)OCO3)OCCCC[C@H](C)O2`, the relative growth was inactive: 0.914. With `OCCN1C[C@@H](O)[C@@H](O)[C@@H](O)[C@@H]1CO`, the relative growth is inactive: 1.02. In the case of `C[C@H](CO)N1C[C@H](C)[C@H](CN(C)S(=O)(=O)c2cn(C)cn2)OCCCC[C@H](C)Oc2ccc(NS(=O)(=O)c3cccs3)cc2C1=O`, the relative growth is inactive: 1.01. The result for `Cc1noc(C)c1NC(=O)Nc1ccc2c(c1)C(=O)N([C@H](C)CO)C[C@H](C)[C@@H](CN(C)Cc1ccc(C(=O)O)cc1)OCCCC[C@H](C)O2` reads inactive: 0.973.
